# Data published in the supplement of paper PMC5655136.
# Values come from read counts of a selection and are noisy.
# Tested on: NB7
# Assay: fold depletion of shRNA, plasmid library share / infected cells without Dox share (9 days) (ratio); higher = more depleted after infection (more toxic, leaky expression from a Tet-inducible vector; NB7 is a neuroblastoma line without caspase-8)
# Conditions: shRNA pool: CD95L ORF + CD95L 3'UTR + Venus libraries
# Protocol: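 Pooled lethality screen in NB7 neuroblastoma cells infected with Dox-inducible pTIP shRNA libraries. The libraries tile every 21-mer of the Venus, CD95L or CD95 ORF / 3'UTR; each hairpin is the 21-nt sense sequence + CTCGAG loop + antisense. Cells were cultured 9 days with or without 100 ng/ml Dox. shRNA representation was measured by deep sequencing of the genomic inserts, normalised to the total reads per subpool and averaged over technical replicates. Fold depletion is the plasmid library share / infected cells without Dox share (mean of 2 biological replicates), and the -Dox/+Dox share ratio is the mean of 4 replicate pairings; higher values mean more depletion (toxicity).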
# 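Note: shRNA barcodes quantified by deep sequencing of PCR amplicons from cellular DNA, counts expressed as percent of each subpool, ratio averaged over two biological duplicates.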
row,Sequence,fold depletion of shRNA
1,TACCTCAAGGGGGACTGTCTT,2.17
2,AGCATGTGTATTTCCAGTGCA,1.01
3,GCACAGTTCTTCCCTGTCCAA,6.62
4,CTCTCGGCATGGACGAGCTGT,1.44
5,CTACGGCAAGCTGACCCTGAA,1.29
6,GCCGACAAGCAGAAGAACGGC,0.533
7,GGTCAAGATTTTGAATGCTTC,1.38
8,CAGGCACCGAGAATGTTGTAT,0.561
9,CAGATTGAAAAGGACACCTTT,0.749
10,GCATGTGTATTTCCAGTGCAA,23.2
11,GCGTGTCCGGCGAGGGCGAGG,0.802
12,CCAAAGTATACTTCCGGGGTC,3.32
13,TATTCCAAAGTATACTTCCGG,1.9
14,AGTTCGTGACCGCCGCCGGGA,0.967
15,CCTGTCCAACCTCTGTGCCCA,3.95
16,GACAGCAGTGCCAGCTCTCCC,0.659
17,GCTTAAAAATCATTGATTGTC,0.604
18,TGGTGAGCAAGGGCGAGGAGC,1.19
19,GGGGACTGTCTTTCAGATACA,2.61
20,CTGAGGATTTAAGGGATGGAA,0.51

row,Sequence,fold depletion of shRNA
1,ACGGCCTGCAGTGCTTCGCCC,0.911
2,CACCACTACCACCTCCGCCGC,2.11
3,TTAACTCACCTCTCAAGGTGG,3.97
4,GTGAACCGCATCGAGCTGAAG,1.33
5,TTTCAGATACATGGTTGTGAC,7.16
6,GCAGAACTCCGAGAGTCTACC,1.01
7,TTGTGACCTGAGGATTTAAGG,2.95
8,CGCTGCCACCCCTGAAGAAGA,0.286
9,GCATATCCTGAGCCATCGGTG,1.69
10,GAAGAACGGCATCAAGGCCAA,2.14
11,TTAAAAATCATTGATTGTCAG,2.27
12,AGGGCATCGACTTCAAGGAGG,4.31
13,TCGCCGACCACTACCAGCAGA,0.775
14,AAGTGGACCTTGAGACCACAG,5.06
15,AAGGCTACGTCCAGGAGCGCA,2.06
16,CCGCCGGGATCACTCTCGGCA,0.726
17,GAACACCCCCATCGGCGACGG,0.699
18,GTCAACGTATCTGAGCTCTCT,2.96
19,GCAAGAGAGATGTTTTGGGGA,2.09
20,AGAGGCCAATGCCCCACTGGC,1.02

row,Sequence,fold depletion of shRNA
1,CTACATGAGGAACTCTAAGTA,0.505
2,CCGGCGAGGGCGAGGGCGATG,0.635
3,CCGCTACCCCGACCACATGAA,1.19
4,TGTGTATTTCCAGTGCAATTG,3.83
5,GGCAACTACAAGACCCGCGCC,1.67
6,GCAAAGACCCCAACGAGAAGC,1.45
7,AAGACCCGCGCCGAGGTGAAG,0.656
8,TGAAAGAGGCCAATGCCCCAC,1.28
9,GATCACATGGTCCTGCTGGAG,2.13
10,CCCGCAGCAGCTACCTGGGGG,1.01
11,TGTTGTATTCAGTGAGGGTCT,1.49
12,CCCACTGGCAGCATCTTCACT,1.13
13,GGTTGCATTTGGTCAAGATTT,0.869
14,GCTTTCTGGAGTGAAGTATAA,1.7
15,ATCCGCCACAACATCGAGGAC,1.45
16,GGAGAAGCAAATAGGCCACCC,1.91
17,CTAATGTTTATGAGCCAGACA,2.07
18,CGATGCCACCTACGGCAAGCT,1.3
19,AGTGCTTAAAAATCATTGATT,1.54
20,ATTCCTAACACAGCATGTGTA,2.11

# Same assay, conditions: shRNA pool: CD95 ORF + CD95 3'UTR + Venus libraries
row,Sequence,fold depletion of shRNA
1,AGTAAATATATCACCACTATT,0.635
2,CCATGTAAAACCTGCTACAAA,0.892
3,CGCCATGCCCGAAGGCTACGT,1.59
4,CTCTCGGCATGGACGAGCTGT,2.12
5,TCAATGAAGCCAAAATAGATG,0.342
6,TTTGAGCAGGAGAGTATTACT,0.896
7,AATAGGAGTGTATGCAGAGGA,1.06
8,GAGTGAAAAACAACAAATTCA,1.04
9,GATGTAGATTGTGTGATGAAG,1.49
10,TTAATATCTCATGATTCTGCC,1.45
11,GAATTATAAAATATAGGTAAA,0.663
12,CTACGGCAAGCTGACCCTGAA,0.685
13,GCCGACAAGCAGAAGAACGGC,1.17
14,AATTGGCATCAACTTCATGGA,1.59
15,GTTCTTACGTCTGTTGCTAGA,4.4
16,AGAATGACAATGTCCAAGACA,1.39
17,CTCCTTACTACTATCCTACGT,1.15
18,ATGTCATGAACCCATGTTTGC,1.94
19,ACCCTGAAGCTGATCTGCACC,1.83
20,AGATAGTTATAAACTGAAGCA,1.08
21,ATGATAAAATAGATTCTTATT,0.815
22,TAGTTATAAACTGAAGCAGAT,1.09
23,TGGCCTAATGCACCCCCAAAC,3.08
24,GCGTGTCCGGCGAGGGCGAGG,0.47
25,AAAAAGCCAATCTTTGTACTC,1.01

row,Sequence,fold depletion of shRNA
1,AGTTCGTGACCGCCGCCGGGA,0.844
2,AACTTTTTTTGTAACTCTACT,0.589
3,TGGTGAGCAAGGGCGAGGAGC,1.21
4,AATTTAAATAAGGCTCTACCT,1.04
5,ACGGCCTGCAGTGCTTCGCCC,0.799
6,AAGTACCCAAATAGGAGTGTA,2.21
7,GTGAACCGCATCGAGCTGAAG,0.613
8,AGGTAAAAGTACGTAATTAAA,0.806
9,TCCAGGTGAAAGGAAAGCTAG,3.02
10,GATTTAGGAATTGCTCTTGTC,1.88
11,AGAAAACATGCAGAAAGCACA,3.56
12,GTATGCAGAGGATGAAAGATT,1.48
13,TGATTCTGCCTCCAAGGATGT,1.36
14,AACATTAAATTATAATGTTTG,0.732
15,AAATATATCACCACTATTGCT,1.57
16,GACATGGCTTAGAAGTGGAAA,1.19
17,GAAGAACGGCATCAAGGCCAA,0.96
18,AGGGCATCGACTTCAAGGAGG,0.867
19,GCGTATGACACATTGATTAAA,0.837
20,TCGCCGACCACTACCAGCAGA,1.32
21,GTCTATCCACAGGCTAACCCC,8.56
22,AAGGCTACGTCCAGGAGCGCA,1.36
23,ATGCAGAGGATGAAAGATTAA,0.859
24,CCGCCGGGATCACTCTCGGCA,0.83
25,TATTATACAATATTTCAATTG,1.48

row,Sequence,fold depletion of shRNA
1,GAACACCCCCATCGGCGACGG,0.657
2,CTTAGAAGTGGAAATAAACTG,0.668
3,AAGGAATGCACACTCACCAGC,0.973
4,CCGGCGAGGGCGAGGGCGATG,1.01
5,CCGCTACCCCGACCACATGAA,1.81
6,TTTGCCCCTTGTGTTTGGAAT,3.03
7,GATTATCGTCCAAAAGTGTTA,1.6
8,GGCAACTACAAGACCCGCGCC,1.04
9,GCAAAGACCCCAACGAGAAGC,1.79
10,GGCCTGCATCATGATGGCCAA,1.01
11,CCCACTCTATGAATCAATAGA,1.18
12,AAGACCCGCGCCGAGGTGAAG,1.3
13,TTCTAAGATTTAAGATTCTCC,1.11
14,GATCACATGGTCCTGCTGGAG,3.33
15,AACTGTGAAGATAGTTATAAA,0.981
16,CCTAAAGAACTTCCATTTATG,0.618
17,TTATACATAGCAATGGTAAAA,0.547
18,ATCCGCCACAACATCGAGGAC,1.03
19,CCTGTCCTCCAGGTGAAAGGA,2.45
20,ACTCTGAGAAGATCATATTTA,0.996
21,CGTCCAAAAGTGTTAATGCCC,3.93
22,CTGTATGTGAACACTGTGACC,3.81
23,TCTTCCAAATGCAGAAGATGT,0.937
24,CGATGCCACCTACGGCAAGCT,1.1
